Experimental data published in the supplement of paper PMC10126150.
Sequences with one replicate were seen in a single cluster, so their values are uncertain.

Test system: ATP
Test: switch fluorescence ratio, 500 uM ATP over buffer (Cy3 cluster intensity, sum of 5 cycles each) (fold (ratio)); higher = stronger signal-on switching upon ATP binding; sequences stand for … in TCGTCGGCAGCGTCAGATGTGTATAAGAGACAGTTTTTTTTTTTTTTTTTTTTTTTTT…TC
Details: aptamer strand: ATP DNA aptamer (quencher-CACCTGGGGGAGTATTGCGGAGGAAGG + anchor), 100 nM annealed; ATP concentration: 500 uM; one replicate
How it was run: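 Imaging in selection buffer was followed by imaging after 15 min with 500 uM ATP at 22 °C, for Cy3-labelled switching-strand clusters annealed to 100 nM quencher-labelled ATP aptamer on a modified Illumina MiSeq flow-cell. Five of these buffer/ATP cycles ran, separated by NaOH stripping and re-annealing. The fluorescence ratio per cluster is summed target-cycle over summed buffer-cycle Cy3 intensity, averaged per switch-domain sequence; clusters outside 100-1000 RFU were removed.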
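Also: ATP exposure 15 min at 22 °C before imaging.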

Which switch fluorescence ratio does the source give for ATGAGTCATA here?
The switch fluorescence ratio was 1.02.

How did the switch fluorescence ratio turn out when ATGAGTGATC was run?
Its switch fluorescence ratio is 1.04.

ATGATAAGAA was tested. Which switch fluorescence ratio did it give?
Its switch fluorescence ratio is 1.01.

How did the switch fluorescence ratio turn out when ATGATATATT was run?
Its switch fluorescence ratio is 1.01.

ATGATATCAC was tested. Which switch fluorescence ratio did it give?
Its switch fluorescence ratio is 0.978.

With ATGATCACCA as the sequence, how does the switch fluorescence ratio read?
Its switch fluorescence ratio is 1.03.

ATGATCAGCG was tested. Which switch fluorescence ratio did it give?
Its switch fluorescence ratio is 0.974.

ATGATCAGGT was tested. Which switch fluorescence ratio did it give?
Its switch fluorescence ratio is 0.94.

ATGATCTAAC was tested. Which switch fluorescence ratio did it give?
Its switch fluorescence ratio is 1.04.

ATGATGCAAA was tested. Which switch fluorescence ratio did it give?
The switch fluorescence ratio was 1.02.

ATGATGCAC was tested. Which switch fluorescence ratio did it give?
Its switch fluorescence ratio is 1.07.

For ATGATGCTTA, which switch fluorescence ratio is on record?
The switch fluorescence ratio was 1.01.

How did the switch fluorescence ratio turn out when ATGATGGAGT was run?
Its switch fluorescence ratio is 0.983.

With ATGATGTCAA as the sequence, how does the switch fluorescence ratio read?
The switch fluorescence ratio was 0.935.

Which switch fluorescence ratio does the source give for ATGATTAACG here?
The switch fluorescence ratio was 1.01.

Which switch fluorescence ratio does the source give for ATGATTCAGG here?
Its switch fluorescence ratio is 1.

For ATGATTCCTC, which switch fluorescence ratio is on record?
Its switch fluorescence ratio is 1.13.

How did the switch fluorescence ratio turn out when ATGATTGCG was run?
The switch fluorescence ratio was 1.

Which switch fluorescence ratio does the source give for ATGCAAGGAG here?
The switch fluorescence ratio was 1.

For ATGCACGCAC, which switch fluorescence ratio is on record?
The switch fluorescence ratio was 1.8.

For ATGCACGCGA, which switch fluorescence ratio is on record?
The switch fluorescence ratio was 1.28.

For ATGCAGAGTC, which switch fluorescence ratio is on record?
The switch fluorescence ratio was 0.978.

How did the switch fluorescence ratio turn out when ATGCAGATTT was run?
Its switch fluorescence ratio is 1.

Which switch fluorescence ratio does the source give for ATGCAGTCAC here?
The switch fluorescence ratio was 0.99.

How did the switch fluorescence ratio turn out when ATGCAGTCTG was run?
The switch fluorescence ratio was 0.978.

How did the switch fluorescence ratio turn out when ATGCAGTGGA was run?
The switch fluorescence ratio was 0.996.

With ATGCAGTTTG as the sequence, how does the switch fluorescence ratio read?
Its switch fluorescence ratio is 1.

For ATGCATGAGC, which switch fluorescence ratio is on record?
The switch fluorescence ratio was 1.04.

For ATGCATTCCT, which switch fluorescence ratio is on record?
The switch fluorescence ratio was 1.09.

ATGCCAAAGC was tested. Which switch fluorescence ratio did it give?
The switch fluorescence ratio was 0.99.

For ATGCCAGC, which switch fluorescence ratio is on record?
Its switch fluorescence ratio is 0.988.

ATGCCAGTGT was tested. Which switch fluorescence ratio did it give?
The switch fluorescence ratio was 1.09.

ATGCCGGCTA was tested. Which switch fluorescence ratio did it give?
The switch fluorescence ratio was 1.01.

With ATGCCTAACG as the sequence, how does the switch fluorescence ratio read?
Its switch fluorescence ratio is 0.993.

Which switch fluorescence ratio does the source give for ATGCGACGAA here?
The switch fluorescence ratio was 1.02.

With ATGCGACGGT as the sequence, how does the switch fluorescence ratio read?
Its switch fluorescence ratio is 1.09.

With ATGCGAGGAG as the sequence, how does the switch fluorescence ratio read?
The switch fluorescence ratio was 1.02.

For ATGCGGTTC, which switch fluorescence ratio is on record?
Its switch fluorescence ratio is 1.05.

With ATGCGTCCAA as the sequence, how does the switch fluorescence ratio read?
The switch fluorescence ratio was 1.02.

With ATGCGTGAT as the sequence, how does the switch fluorescence ratio read?
The switch fluorescence ratio was 0.977.

With ATGCTGCAA as the sequence, how does the switch fluorescence ratio read?
The switch fluorescence ratio was 1.43.

With ATGCTGGATT as the sequence, how does the switch fluorescence ratio read?
Its switch fluorescence ratio is 0.986.

For ATGCTTGTTT, which switch fluorescence ratio is on record?
The switch fluorescence ratio was 1.

ATGGAAAGCT was tested. Which switch fluorescence ratio did it give?
Its switch fluorescence ratio is 1.22.

For ATGGAAATAC, which switch fluorescence ratio is on record?
Its switch fluorescence ratio is 1.15.

ATGGAAATGC was tested. Which switch fluorescence ratio did it give?
The switch fluorescence ratio was 1.08.

Which switch fluorescence ratio does the source give for ATGGACGGGC here?
The switch fluorescence ratio was 1.1.

How did the switch fluorescence ratio turn out when ATGGAGAAGG was run?
Its switch fluorescence ratio is 0.998.

ATGGAGTAT was tested. Which switch fluorescence ratio did it give?
Its switch fluorescence ratio is 0.996.

Which switch fluorescence ratio does the source give for ATGGATCCTG here?
The switch fluorescence ratio was 0.995.

How did the switch fluorescence ratio turn out when ATGGATCTAA was run?
Its switch fluorescence ratio is 0.969.

Which switch fluorescence ratio does the source give for ATGGCAAGGC here?
The switch fluorescence ratio was 1.31.

ATGGCGCGGC was tested. Which switch fluorescence ratio did it give?
Its switch fluorescence ratio is 1.07.

With ATGGCGGAGT as the sequence, how does the switch fluorescence ratio read?
Its switch fluorescence ratio is 1.02.

ATGGCGGTCG was tested. Which switch fluorescence ratio did it give?
The switch fluorescence ratio was 1.05.

Which switch fluorescence ratio does the source give for ATGGCGGTTC here?
Its switch fluorescence ratio is 1.3.

With ATGGCGTGCG as the sequence, how does the switch fluorescence ratio read?
The switch fluorescence ratio was 1.

ATGGCTAGCA was tested. Which switch fluorescence ratio did it give?
Its switch fluorescence ratio is 1.02.

Which switch fluorescence ratio does the source give for ATGGCTCTTA here?
The switch fluorescence ratio was 0.974.

ATGGCTTCAA was tested. Which switch fluorescence ratio did it give?
The switch fluorescence ratio was 1.04.

With ATGGCTTCGG as the sequence, how does the switch fluorescence ratio read?
The switch fluorescence ratio was 0.975.

ATGGGAATAG was tested. Which switch fluorescence ratio did it give?
Its switch fluorescence ratio is 1.

For ATGGGATCAG, which switch fluorescence ratio is on record?
The switch fluorescence ratio was 0.983.

ATGGGCGAGG was tested. Which switch fluorescence ratio did it give?
The switch fluorescence ratio was 0.979.

How did the switch fluorescence ratio turn out when ATGGGCGGGA was run?
The switch fluorescence ratio was 0.998.

With ATGGGGAA as the sequence, how does the switch fluorescence ratio read?
Its switch fluorescence ratio is 0.985.

With ATGGGGGCGC as the sequence, how does the switch fluorescence ratio read?
Its switch fluorescence ratio is 1.03.

Which switch fluorescence ratio does the source give for ATGGGGTCCC here?
The switch fluorescence ratio was 1.02.

Which switch fluorescence ratio does the source give for ATGGGTATTA here?
Its switch fluorescence ratio is 0.985.

ATGGGTCGCC was tested. Which switch fluorescence ratio did it give?
The switch fluorescence ratio was 0.972.

ATGGGTCGT was tested. Which switch fluorescence ratio did it give?
The switch fluorescence ratio was 0.983.

For ATGGGTTCGG, which switch fluorescence ratio is on record?
Its switch fluorescence ratio is 1.01.

How did the switch fluorescence ratio turn out when ATGGTAACTT was run?
Its switch fluorescence ratio is 1.02.

ATGGTACATC was tested. Which switch fluorescence ratio did it give?
Its switch fluorescence ratio is 1.02.

Which switch fluorescence ratio does the source give for ATGGTAGACT here?
Its switch fluorescence ratio is 0.988.

ATGGTAGGT was tested. Which switch fluorescence ratio did it give?
The switch fluorescence ratio was 1.01.

For ATGGTATACA, which switch fluorescence ratio is on record?
Its switch fluorescence ratio is 1.

With ATGGTCACGG as the sequence, how does the switch fluorescence ratio read?
Its switch fluorescence ratio is 0.992.

How did the switch fluorescence ratio turn out when ATGGTCCCAC was run?
Its switch fluorescence ratio is 0.948.

Which switch fluorescence ratio does the source give for ATGGTCGCCT here?
The switch fluorescence ratio was 0.983.

ATGGTCTGAC was tested. Which switch fluorescence ratio did it give?
The switch fluorescence ratio was 1.09.

For ATGGTCTGG, which switch fluorescence ratio is on record?
The switch fluorescence ratio was 0.989.

With ATGGTTCAGC as the sequence, how does the switch fluorescence ratio read?
Its switch fluorescence ratio is 1.03.

How did the switch fluorescence ratio turn out when ATGGTTCGGC was run?
The switch fluorescence ratio was 0.939.

ATGGTTGTTA was tested. Which switch fluorescence ratio did it give?
The switch fluorescence ratio was 1.07.

For ATGGTTTGTC, which switch fluorescence ratio is on record?
The switch fluorescence ratio was 0.965.

With ATGTAATGCT as the sequence, how does the switch fluorescence ratio read?
Its switch fluorescence ratio is 1.06.

How did the switch fluorescence ratio turn out when ATGTACACTC was run?
The switch fluorescence ratio was 1.03.

With ATGTACCCTA as the sequence, how does the switch fluorescence ratio read?
Its switch fluorescence ratio is 1.1.

For ATGTAGGAGT, which switch fluorescence ratio is on record?
The switch fluorescence ratio was 1.

Which switch fluorescence ratio does the source give for ATGTAGTTGA here?
The switch fluorescence ratio was 1.03.

For ATGTATACAC, which switch fluorescence ratio is on record?
The switch fluorescence ratio was 1.02.

For ATGTATCGGA, which switch fluorescence ratio is on record?
The switch fluorescence ratio was 0.988.

Which switch fluorescence ratio does the source give for ATGTATGCGT here?
The switch fluorescence ratio was 1.

Which switch fluorescence ratio does the source give for ATGTATGGGA here?
The switch fluorescence ratio was 0.954.

How did the switch fluorescence ratio turn out when ATGTATGTTT was run?
The switch fluorescence ratio was 0.921.

How did the switch fluorescence ratio turn out when ATGTATTATT was run?
Its switch fluorescence ratio is 1.01.

Which switch fluorescence ratio does the source give for ATGTCAGGCA here?
The switch fluorescence ratio was 1.

Which switch fluorescence ratio does the source give for ATGTCATAAT here?
Its switch fluorescence ratio is 0.98.

With ATGTCCGTCA as the sequence, how does the switch fluorescence ratio read?
Its switch fluorescence ratio is 0.917.
